Data reported in paper PMC9911399, “Two distinct binding modes provide the RNA-binding protein RbFox with extraordinary sequence specificity”.
Numbering of substitutions follows the chain as printed; changes in the protein carry UniProt numbers. The list shows a part of the results.

T1: RBFOX1 RRM (Homo sapiens, UniProt Q9NWB1 109-208)
T1 sequence: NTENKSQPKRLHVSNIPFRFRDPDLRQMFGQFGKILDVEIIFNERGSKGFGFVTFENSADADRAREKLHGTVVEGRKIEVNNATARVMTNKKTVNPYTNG

B1: AACGGGG (DNA:RNA)
RNA: GGGAGACCGGAAUUCAGAUUGUCCAACGGGGUUAAAUCCCGUCGUAGCCACCA
DNA 1: CAATCTGAATTCCGGTCTCCC
DNA 2: TGGTGGCTACGACGGGATT
B2: CCCUAUU (DNA:RNA)
RNA: B1 RNA with A25C, A26C, G28U, G29A, G30U, G31U
DNA 1: CAATCTGAATTCCGGTCTCCC
DNA 2: TGGTGGCTACGACGGGATT
B3: AGGAUGG (DNA:RNA)
RNA: B1 RNA with A26G, C27G, G28A, G29U
DNA 1: CAATCTGAATTCCGGTCTCCC
DNA 2: TGGTGGCTACGACGGGATT
B4: AACAUGA (DNA:RNA)
RNA: B1 RNA with G28A, G29U, G31A
DNA 1: CAATCTGAATTCCGGTCTCCC
DNA 2: TGGTGGCTACGACGGGATT
B5: GUCGGCG (DNA:RNA)
RNA: B1 RNA with A25G, A26U, G30C
DNA 1: CAATCTGAATTCCGGTCTCCC
DNA 2: TGGTGGCTACGACGGGATT
B6: GAGUCUG (DNA:RNA)
RNA: B1 RNA with A25G, C27G, G28U, G29C, G30U
DNA 1: CAATCTGAATTCCGGTCTCCC
DNA 2: TGGTGGCTACGACGGGATT
B7: UGCACUG (DNA:RNA)
RNA: B1 RNA with A25U, A26G, G28A, G29C, G30U
DNA 1: CAATCTGAATTCCGGTCTCCC
DNA 2: TGGTGGCTACGACGGGATT
B8: UUUUACU (DNA:RNA)
RNA: GGGAGACCGGAAUUCAGAUUGUCCUUUUACUUUAAAUCCCGUCGUAGCCACCA
DNA 1: CAATCTGAATTCCGGTCTCCC
DNA 2: TGGTGGCTACGACGGGATT
B9: UUAUUGA (DNA:RNA)
RNA: B8 RNA with U27A, A29U, C30G, U31A
DNA 1: CAATCTGAATTCCGGTCTCCC
DNA 2: TGGTGGCTACGACGGGATT
B10: CGGGGGU (DNA:RNA)
RNA: B1 RNA with A25C, A26G, C27G, G31U
DNA 1: CAATCTGAATTCCGGTCTCCC
DNA 2: TGGTGGCTACGACGGGATT
B11: CAACUCG (DNA:RNA)
RNA: B1 RNA with A25C, C27A, G28C, G29U, G30C
DNA 1: CAATCTGAATTCCGGTCTCCC
DNA 2: TGGTGGCTACGACGGGATT
B12: GCCCAAU (DNA:RNA)
RNA: B8 RNA with U25G, U26C, U27C, U28C, C30A
DNA 1: CAATCTGAATTCCGGTCTCCC
DNA 2: TGGTGGCTACGACGGGATT
B13: UCCAACC (DNA:RNA)
RNA: B8 RNA with U26C, U27C, U28A, U31C
DNA 1: CAATCTGAATTCCGGTCTCCC
DNA 2: TGGTGGCTACGACGGGATT
B14: CCGCCAC (DNA:RNA)
RNA: GGGAGACCGGAAUUCAGAUUGUCCCCGCCACUUAAAUCCCGUCGUAGCCACCA
DNA 1: CAATCTGAATTCCGGTCTCCC
DNA 2: TGGTGGCTACGACGGGATT
B15: GCCCUUA (DNA:RNA)
RNA: B14 RNA with C25G, G27C, C29U, A30U, C31A
DNA 1: CAATCTGAATTCCGGTCTCCC
DNA 2: TGGTGGCTACGACGGGATT
B16: CUAGGGC (DNA:RNA)
RNA: B1 RNA with A25C, A26U, C27A, G31C
DNA 1: CAATCTGAATTCCGGTCTCCC
DNA 2: TGGTGGCTACGACGGGATT
B17: UGGGUAU (DNA:RNA)
RNA: B14 RNA with C25U, C26G, C28G, C29U, C31U
DNA 1: CAATCTGAATTCCGGTCTCCC
DNA 2: TGGTGGCTACGACGGGATT
B18: UAUGGUG (DNA:RNA)
RNA: B1 RNA with A25U, C27U, G30U
DNA 1: CAATCTGAATTCCGGTCTCCC
DNA 2: TGGTGGCTACGACGGGATT
B19: CUUUGCC (DNA:RNA)
RNA: B8 RNA with U25C, A29G, U31C
DNA 1: CAATCTGAATTCCGGTCTCCC
DNA 2: TGGTGGCTACGACGGGATT
B20: UAGAGGG (DNA:RNA)
RNA: B1 RNA with A25U, C27G, G28A
DNA 1: CAATCTGAATTCCGGTCTCCC
DNA 2: TGGTGGCTACGACGGGATT

Molecular target: T1, RBFOX1 RRM
Assay: EMSA; HiTS-Eq, 1 nM pool, 10 min; buffer printed only for the single-RNA assays: 10 mM Tris pH 7.5, 150 mM NaCl, 3.4 mM EDTA, 0.001% NP-40, 30 C
Conditions: tags: His6 N-terminal (pET28a); label: 5' 32P
Summary of the method: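 A pool of RNA with 7 randomized nucleotides, 5′-radiolabelled and with DNA-annealed flanks, was equilibrated at 1 nM for 10 min in 50 µL with purified RbFox RRM, wild type or mutant, across increasing protein concentrations. Free RNA was separated by 8% native PAGE, excised, reverse-transcribed, barcoded by PCR and sequenced. Relative association constants were obtained from read-count changes of each RNA species versus the control reaction and normalised to the cognate motif.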

Row | Binder | binding signal
1 | B1 | 0.00941 KA relative to UGCAUGU
2 | B2 | 0.00299 KA relative to UGCAUGU
3 | B3 | 0.0178 KA relative to UGCAUGU
4 | B4 | 0.00456 KA relative to UGCAUGU
5 | B5 | 0.0204 KA relative to UGCAUGU
6 | B6 | 0.0238 KA relative to UGCAUGU
7 | B7 | 0.0224 KA relative to UGCAUGU
8 | B8 | 0.00793 KA relative to UGCAUGU
9 | B9 | 0.0139 KA relative to UGCAUGU
10 | B10 | 0.0227 KA relative to UGCAUGU
11 | B11 | 0.00248 KA relative to UGCAUGU
12 | B12 | 0.00773 KA relative to UGCAUGU
13 | B13 | 0.00367 KA relative to UGCAUGU
14 | B14 | 0.00254 KA relative to UGCAUGU
15 | B15 | 0.00831 KA relative to UGCAUGU
16 | B16 | 0.00212 KA relative to UGCAUGU
17 | B17 | 0.0278 KA relative to UGCAUGU
18 | B18 | 0.0249 KA relative to UGCAUGU
19 | B19 | 0.0129 KA relative to UGCAUGU
20 | B20 | 0.00669 KA relative to UGCAUGU
